# Reference: patent publication US20260217835A1 (published 2026)
# B1: Full-length human IgG1 heavy chain with T394Y/F405A (SEQ ID NO: 383) with light chain SEQ ID NO: 61 (antibody)
# heavy: QVQLQESGPGLVRPSQTLSLTCTVSGYSITSDHAWSWVRQPPGRGLEWIGYISYSGITTYNPSLKSRVTMLRDTSKNQFSLRLSSVTAADTAVYYCARSLARTTAMDYWGQGSLVTVSSASTKGPSVFPLAPSSKSTSGGTAALGCLVKDYFPEPVTVSWNSGALTSGVHTFPAVLQSSGLYSLSSVVTVPSSSLGTQTYICNVNHKPSNTKVDKRV[no letters for human IgG1 Fc with T394Y F405A (EU numbers)]
# light: DIQMTQSPSSLSASVGDRVTITCRASQDISSYLNWYQQKPGKAPKLLIYYTSRLHSGVPSRFSGSGSGTDFTFTISSLQPEDIATYYCQQGNTLPYTFGQGTKVEIKRTVAAPSVFIFPPSDEQLKSGTASVVCLLNNFYPREAKVQWKVDNALQSGNSQESVTEQDSKDSTYSLSSTLTLSKADYEKHKVYACEVTHQGLSSPVTKSFNRGEC
# notes: also called Sample No. 973
# B2: Full-length human IgG1 heavy chain with T394F/F405G (SEQ ID NO: 388) with light chain SEQ ID NO: 61 (antibody)
# heavy: QVQLQESGPGLVRPSQTLSLTCTVSGYSITSDHAWSWVRQPPGRGLEWIGYISYSGITTYNPSLKSRVTMLRDTSKNQFSLRLSSVTAADTAVYYCARSLARTTAMDYWGQGSLVTVSSASTKGPSVFPLAPSSKSTSGGTAALGCLVKDYFPEPVTVSWNSGALTSGVHTFPAVLQSSGLYSLSSVVTVPSSSLGTQTYICNVNHKPSNTKVDKRV[no letters for human IgG1 Fc with T394F F405G (EU numbers)]
# light: B1 light
# notes: also called Sample No. 978
# B3: Full-length human IgG1 heavy chain with T394H/F405A (SEQ ID NO: 384) with light chain SEQ ID NO: 61 (antibody)
# heavy: QVQLQESGPGLVRPSQTLSLTCTVSGYSITSDHAWSWVRQPPGRGLEWIGYISYSGITTYNPSLKSRVTMLRDTSKNQFSLRLSSVTAADTAVYYCARSLARTTAMDYWGQGSLVTVSSASTKGPSVFPLAPSSKSTSGGTAALGCLVKDYFPEPVTVSWNSGALTSGVHTFPAVLQSSGLYSLSSVVTVPSSSLGTQTYICNVNHKPSNTKVDKRV[no letters for human IgG1 Fc with T394H F405A (EU numbers)]
# light: B1 light
# notes: also called Sample No. 974
# B4: Full-length human IgG1 heavy chain with T394W/F405S (SEQ ID NO: 381) with light chain SEQ ID NO: 61 (antibody)
# heavy: QVQLQESGPGLVRPSQTLSLTCTVSGYSITSDHAWSWVRQPPGRGLEWIGYISYSGITTYNPSLKSRVTMLRDTSKNQFSLRLSSVTAADTAVYYCARSLARTTAMDYWGQGSLVTVSSASTKGPSVFPLAPSSKSTSGGTAALGCLVKDYFPEPVTVSWNSGALTSGVHTFPAVLQSSGLYSLSSVVTVPSSSLGTQTYICNVNHKPSNTKVDKRV[no letters for human IgG1 Fc with T394W F405S (EU numbers)]
# light: B1 light
# notes: also called Sample No. 971
# B5: Full-length human IgG1 heavy chain with T394W/F405T (SEQ ID NO: 382) with light chain SEQ ID NO: 61 (antibody)
# heavy: QVQLQESGPGLVRPSQTLSLTCTVSGYSITSDHAWSWVRQPPGRGLEWIGYISYSGITTYNPSLKSRVTMLRDTSKNQFSLRLSSVTAADTAVYYCARSLARTTAMDYWGQGSLVTVSSASTKGPSVFPLAPSSKSTSGGTAALGCLVKDYFPEPVTVSWNSGALTSGVHTFPAVLQSSGLYSLSSVVTVPSSSLGTQTYICNVNHKPSNTKVDKRV[no letters for human IgG1 Fc with T394W F405T (EU numbers)]
# light: B1 light
# notes: also called Sample No. 972
# B6: Full-length human IgG1 heavy chain with T394Y/F405C (SEQ ID NO: 386) with light chain SEQ ID NO: 61 (antibody)
# heavy: QVQLQESGPGLVRPSQTLSLTCTVSGYSITSDHAWSWVRQPPGRGLEWIGYISYSGITTYNPSLKSRVTMLRDTSKNQFSLRLSSVTAADTAVYYCARSLARTTAMDYWGQGSLVTVSSASTKGPSVFPLAPSSKSTSGGTAALGCLVKDYFPEPVTVSWNSGALTSGVHTFPAVLQSSGLYSLSSVVTVPSSSLGTQTYICNVNHKPSNTKVDKRV[no letters for human IgG1 Fc with T394Y F405C (EU numbers)]
# light: B1 light
# notes: also called Sample No. 590; Sample No. 976
# B7: Full-length human IgG1 heavy chain with T394Y/F405T (SEQ ID NO: 385) with light chain SEQ ID NO: 61 (antibody)
# heavy: QVQLQESGPGLVRPSQTLSLTCTVSGYSITSDHAWSWVRQPPGRGLEWIGYISYSGITTYNPSLKSRVTMLRDTSKNQFSLRLSSVTAADTAVYYCARSLARTTAMDYWGQGSLVTVSSASTKGPSVFPLAPSSKSTSGGTAALGCLVKDYFPEPVTVSWNSGALTSGVHTFPAVLQSSGLYSLSSVVTVPSSSLGTQTYICNVNHKPSNTKVDKRV[no letters for human IgG1 Fc with T394Y F405T (EU numbers)]
# light: B1 light
# notes: also called Sample No. 975
# B8: Full-length heavy chain with T394Y/F405G (SEQ ID NO: 398) with light chain SEQ ID NO: 61 (antibody, human IgG1, kappa)
# heavy: QVQLQESGPGLVRPSQTLSLTCTVSGYSITSDHAWSWVRQPPGRGLEWIGYISYSGITTYNPSLKSRVTMLRDTSKNQFSLRLSSVTAADTAVYYCARSLARTTAMDYWGQGSLVTVSSASTKGPSVFPLAPSSKSTSGGTAALGCLVKDYFPEPVTVSWNSGALTSGVHTFPAVLQSSGLYSLSSVVTVPSSSLGTQTYICNVNHKPSNTKVDKRV[no letters for human IgG1 Fc with T394Y F405G (EU numbers)]
# light: B1 light
# notes: also called Sample No. 988
# B9: Full-length heavy chain with T394Y/F405S (SEQ ID NO: 399) with light chain SEQ ID NO: 61 (antibody, human IgG1, kappa)
# heavy: QVQLQESGPGLVRPSQTLSLTCTVSGYSITSDHAWSWVRQPPGRGLEWIGYISYSGITTYNPSLKSRVTMLRDTSKNQFSLRLSSVTAADTAVYYCARSLARTTAMDYWGQGSLVTVSSASTKGPSVFPLAPSSKSTSGGTAALGCLVKDYFPEPVTVSWNSGALTSGVHTFPAVLQSSGLYSLSSVVTVPSSSLGTQTYICNVNHKPSNTKVDKRV[no letters for human IgG1 Fc with T394Y F405S (EU numbers)]
# light: B1 light
# notes: also called Sample No. 989
# B10: WT IgG1 full-length heavy chain (SEQ ID NO: 1) with light chain (SEQ ID NO: 61) (antibody)
# heavy: QVQLQESGPGLVRPSQTLSLTCTVSGYSITSDHAWSWVRQPPGRGLEWIGYISYSGITTYNPSLKSRVTMLRDTSKNQFSLRLSSVTAADTAVYYCARSLARTTAMDYWGQGSLVTVSSASTKGPSVFPLAPSSKSTSGGTAALGCLVKDYFPEPVTVSWNSGALTSGVHTFPAVLQSSGLYSLSSVVTVPSSSLGTQTYICNVNHKPSNTKVDKRV[no letters for human IgG1 Fc]
# light: B1 light
# B11: IgG1 full-length heavy chain T394W/F405A (SEQ ID NO: 19) with light chain SEQ ID NO: 61 (antibody)
# heavy: QVQLQESGPGLVRPSQTLSLTCTVSGYSITSDHAWSWVRQPPGRGLEWIGYISYSGITTYNPSLKSRVTMLRDTSKNQFSLRLSSVTAADTAVYYCARSLARTTAMDYWGQGSLVTVSSASTKGPSVFPLAPSSKSTSGGTAALGCLVKDYFPEPVTVSWNSGALTSGVHTFPAVLQSSGLYSLSSVVTVPSSSLGTQTYICNVNHKPSNTKVDKRV[no letters for human IgG1 Fc with changes]
# light: B1 light
# notes: also called Sample No. 220
# Assays:
# [1] = target: T1, Fc fragment of human IgG1 below the hinge region containing no modification (SEQ ID NO: 62) (human, UniProt P01857 in part = IgG part); assay: SEC peak area ratio after coexpression of full-length heavy chain, light chain and Fc fragment in Expi293F
# T1 construct: One Fc chain is meant as the associating unit; it pairs with itself (homo Fc fragment) or with a full-length heavy chain (heteromultimer); also called WT-Fc fragment
# [2] = target: T1, Fc fragment of human IgG1 below the …; assay: SEC peak area ratio of the heteromultimer after coexpression of full-length heavy chain, light chain and Fc fragment
# [3] = target: T2, Fc fragment of human IgG1 below the hinge region containing no modification (SEQ ID NO: 62) (human, UniProt P01857 in part = IgG part); assay: SEC peak area ratio after coexpression of full-length heavy chain, light chain and WT Fc fragment in Expi293F;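 further: peak area ratios come from chromatograms detected by UV absorbance at 215 nm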
# T2 construct: Unmodified human IgG1 Fc fragment coexpressed with each full-length heavy chain and the light chain; it associates through its CH3 interface; also called WT-Fc fragment
# [4] = target: the molecule itself; assay: SEC area ratio of heavy chain homodimer; co-expressed with Fc fragment SEQ ID NO 62
# [5] = target: T3, IgG2 Fc fragment without modification (SEQ ID NO: 103) (Homo sapiens (Human), UniProt P01859 99-324 = IgG part); assay: co-expression of full-length heavy chain, light chain and Fc fragment in Expi293F, affinity purification, SEC peak area ratio;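 further: purified antibodies analysed by size exclusion chromatography with UV detection at 215 nm, each species given as share of total chromatogram peak area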
# T3 construct: Fc fragment co-expressed with a full-length heavy chain and the light chain; the associating unit is one Fc chain; also called WT-IgG2 Fc fragment
binder,measurement,setting,value
B1,Heteromultimer (%),[1],3.2%
B2,Heteromultimer (%),[1],5.6%
B3,Heteromultimer (%),[1],39.4%
B4,binding result,[2],no binding
B5,binding result,[2],no binding
B6,Heteromultimer (%),[1],8.6%
B7,Heteromultimer (%),[1],5.2%
B8,Heteromultimer (%),[3],2.3%
B9,Heteromultimer (%),[3],1.5%
B10,Homo full-length heavy chain (%),[4],28.7%
B11,Heteromultimer (%),[5],0%
